This is one part of the list.

The results in this text go back to paper PMC12136788.

T1: UNK ZnF1-3 (human, UniProt Q9C0B0 31-174)
T1 sequence: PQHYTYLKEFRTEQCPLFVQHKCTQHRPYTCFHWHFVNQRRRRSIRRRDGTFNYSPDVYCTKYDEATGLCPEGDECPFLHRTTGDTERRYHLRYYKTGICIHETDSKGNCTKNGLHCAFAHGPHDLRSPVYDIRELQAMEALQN

B1: chr18:16782857:16782858:-_ENSMUSG00000024304_ENSMUST00000115850|mus_mus|FALSE|FALSE (ssRNA)
RNA: GGGAGUUCUACAGUCCGACGAUCGGGGGGAUUCCCUGAAUCUGUGAUAAUGAUGGGAACUUCAUAGAUACCAGCUUCCAAAAAUUUUAUCUUUAAAUUGAGCUGAGCAAAAUCACCAUUAAGCCGGUUGAUGGUCCAGUUUCUCAACAGAGGAUUGAGCAUCA
B2: chr7:117217587:117217588:+_ENSMUSG00000061079_ENSMUST00000084727|mus_mus|FALSE|FALSE (ssRNA)
RNA: GGGAGUUCUACAGUCCGACGAUCGAUAUAAGCUGUUGUCCCAUCUUCUAACUGAACGGCCUGAAGUGAGCUCUGGUCAUAACUGUCUUUCGAGGUGUGGUGGAUAAAUGCAGUGGUCCCGUCUUCUAGCUGCACUGCUUGCCCCAACAGAGGAUUGAGCAUCA
B3: chr12:48362563:48362564:+_ENSG00000134291_ENST00000256686|hu_hu|hu_hu_hu_mus_False|68_88 (ssRNA)
RNA: GGGAGUUCUACAGUCCGACGAUCUCCGUCAAGCCCUUCGAUAGACCCAUAGACUCUAAACUGUAAUAAUUCUAACUGGGGAAGGAAAAGAAACGCCAAAAACUUUCCAAAAAGCGGGGGUGGGGUGAGGCGGGAGGGGGAGGUCAACAGAGGAUUGAGCAUCA
B4: 96090537_96091411_2932_3pUTR_ENSG00000182168_ENST00000453304|human|control|control (ssRNA)
RNA: GGGAGUUCUACAGUCCGACGAUCGUAAUUCAAGUACCUGUCCAGGUUCAGCUUAUGGGCCAGCAUCCUCCAGUCAUGGCCUCUCGUCUGGGGGGCAUCCAGGCUGCUACAGAGCUUCUGCCGGAUAGGGAGAGGGAUGCUGAACAACAGAGGAUUGAGCAUCA
B5: chr2:216981417:216981418:+_ENSG00000079246_ENST00000392132|hu_hu|hu_hu_hu_mus_True|38_68 (ssRNA)
RNA: GGGAGUUCUACAGUCCGACGAUCCUGAUACUGGUCCUUGCCAGCAAGGGCAUUAUCAGUGCCAUCUGUACCAAACAGGACUAACGCAAUCUCAUCUUUGUUCUCAGAAAAUACCUGUCGUUGGACAAACAUAGUCAUCACUUUCAACAGAGGAUUGAGCAUCA
B6: chr2:46810187:46810188:+_ENSG00000119729_ENST00000238738|hu_hu|motif|central (ssRNA)
RNA: GGGAGUUCUACAGUCCGACGAUCAAUGUGUAAUAGUUUACUGUUGUAAUUCGUUUAUACCAUGUGUUGGACAACUCAGCGGAUAUGUUAAUUGAUUUAUACAAUUCCUUUCAAUUUUAUCUAAAAAUAAGCAGACCAAAAUUACAACAGAGGAUUGAGCAUCA
B7: chr7:150721943:150721944:-_ENSMUSG00000059119_ENSMUST00000072727|mus_mus|motif|central (ssRNA)
RNA: GGGAGUUCUACAGUCCGACGAUCCACCUGGAGCUGCUUCAGGGCAUUAAUUCUUCUUUUGACAGCUUUAGGUAAAGUUUCGGUGUAACUAGAAGGAGUGUGAGAGACGUUGUCAAGACGUUCCUGCAAAGCUGCCAGCACUUGCAACAGAGGAUUGAGCAUCA
B8: chr6:17615347:17615348:+_ENSMUSG00000015733_ENSMUST00000015877|mus_hu|motif|central (ssRNA)
RNA: GGGAGUUCUACAGUCCGACGAUCUCCGGUCAUGCAAUGUUCAUCUUAUGCAUUCUGCAUCUCUUUGCCAAUCUUGUAGCGGAGGAUCUUGUUCCAAUCAAUCUUAGUGCGUGUAACUGGCAACUGUCGACGUAAGGCUUUGAACAACAGAGGAUUGAGCAUCA
B9: chr12:100720429:100720430:+_ENSG00000136021_ENST00000360820|hu_mus|FALSE|FALSE (ssRNA)
RNA: GGGAGUUCUACAGUCCGACGAUCGAAGGGUAGGAUAUCAUCAAGCACAAACCACUUAUCCAGGUACUCCAGGAUCUUCCCUAAGCACACUAAUGAAUUCACACGGACAGCAAGGGAAGACGUUUGUAAACAGGCAUUUUUAAUCAACAGAGGAUUGAGCAUCA
B10: 148756940_148757411_2825_CDS_ENSG00000071794_ENST00000310053|human|control|control (ssRNA)
RNA: GGGAGUUCUACAGUCCGACGAUCAAAACACUGAAUUGAUUCAACUCUUUUCUUUUGGGCCAUGGAACCAUCCAAACGAGUAAACACAAAUCCAGAGGCUUUAAGUGGUAUUUCUAUUAAAGACAGGAAUGUUGUAAACUGAGACAACAGAGGAUUGAGCAUCA
B11: 21461063_21466172_6558_CDS_ENSMUSG00000042453_ENSMUST00000161356|mouse|control|control (ssRNA)
RNA: GGGAGUUCUACAGUCCGACGAUCCCAACGGAAACGCACAGAUCCACAAAGGUGCAGCUUUCCGAAGUGCACGACCUCCCGCCGCCAGCCCUGGGUGGUCCCCGCGUAGUAGGUGCUGCUCGGGUGAUGCUCAGUGGAGCAUAACAACAGAGGAUUGAGCAUCA
B12: 40762976_40763096_572_CDS_ENSMUSG00000047446_ENSMUST00000101472|mouse|control|control (ssRNA)
RNA: GGGAGUUCUACAGUCCGACGAUCAGUUAUUUUAUGAAGUUCAGUUUUGGCUUCUUCCAUUCUCUCAACAUCGACAGAGUCCACCACAAACACAAUACCAUCUGUGCAUCGGGUGUAUGACUUCCACAGUGGUCUUAACUUCUCCAACAGAGGAUUGAGCAUCA
B13: chr5:145858064:145858065:+_ENSG00000113649_ENST00000394421|hu_hu|FALSE|FALSE (ssRNA)
RNA: GGGAGUUCUACAGUCCGACGAUCCCACAUAGAAAGACGAGUGGUGGGAUUAUAAAAGAAGACCCGCUCAUCACCAGUCCAAACGACACACCAUGGAGUACCAGGAAUAGGAGCAGUAGCAACUGGCUUUGCCUUCUGGGCAGCCAACAGAGGAUUGAGCAUCA
B14: 27720159_27733746_472_CDS_ENSMUSG00000024213_ENSMUST00000025050|mouse|control|control (ssRNA)
RNA: GGGAGUUCUACAGUCCGACGAUCAAAAAUUCCAACUAGUCUUCCCAGUGUCCCUUUCACUCCAGCCUCCUCACACACUUCCCGGACAGCUGCCACACUUGGCUCCUCCUCAGGCUCCAUGCCUCCUCCGGGGACAAUCCAUCGCAACAGAGGAUUGAGCAUCA
B15: 113923486_113924314_1533_CDS_ENSG00000119927_ENST00000348367|human|control|control (ssRNA)
RNA: GGGAGUUCUACAGUCCGACGAUCAAUCAACCUCCUUCGUAGGGAUUCAUCUGUUGCAUUUCUGGACUCAUUAAUGGACGUGUCUCUACCUUCAUCAGCAGCAUCACUGGGUCUUGAAGGAAGUAUAGCUGGUAACAACGCUUGCAACAGAGGAUUGAGCAUCA
B16: chr2:60072322:60072323:+_ENSMUSG00000026977_ENSMUST00000102748|mus_hu|motif|central (ssRNA)
RNA: GGGAGUUCUACAGUCCGACGAUCUGAUCUUGUAUUCAAGGAAUCCUGACUAGAUCUUCGUGAAAAAAAAGUAGAUGACAUGCGGGAAGCUAUGCGUGACAGCAAUCUCCUCGUUGUCCGCCUACCUUCAUUGUCAGAAGAUUCCAACAGAGGAUUGAGCAUCA
B17: chr3:150289932:150289933:+_ENSG00000144895_ENST00000460851|hu_hu|hu_hu_hu_mus_False|28_28 (ssRNA)
RNA: GGGAGUUCUACAGUCCGACGAUCCUUGUAGUUUUUAACAUCCCAUACUUCCAUUUGUCCUCGAAGAUUUCCAAAUCCAGCCAGCACUAAUAUAUGUCCAUGAGGGCUAUAGUAGGCUGCGUUGCGAGGACCAGUCCCAAAGUCCAACAGAGGAUUGAGCAUCA
B18: chr3:176767854:176767855:-_ENSG00000177565_ENST00000430069|hu_hu|hu_hu_hu_mus_False|28_58 (ssRNA)
RNA: GGGAGUUCUACAGUCCGACGAUCGACAUCCUUGUUACUGGGCACGUCCUGCCCUCCUUCCCGUAUGCAGUGUCUAAGUACUAACUGCGUAGGGCCACUCGUGCUGUUCUCACUAAGGUUCCAGAUUCUUGCCGUGGAGUCUCCCAACAGAGGAUUGAGCAUCA
B19: chr1:225611761:225611762:-_ENSG00000143815_ENST00000272163|hu_mus|hu_hu_hu_mus_True|58_98 (ssRNA)
RNA: GGGAGUUCUACAGUCCGACGAUCCCAGGCCAUCGGCCUCUUACCACUUCACCCUCAACAAACUUCCUACUUGGCAUUUUCUAUAAUUAGUCUGGCCGCGCUCCGGCGGGAACUCCAGCCACUCCAGGACAGUCACCAGCAGCCCAACAGAGGAUUGAGCAUCA
B20: chr11:46405157:46405158:+_ENSG00000110492_ENST00000395566|hu_hu|hu_hu_hu_mus_False|8_8 (ssRNA)
RNA: GGGAGUUCUACAGUCCGACGAUCCCCUCCCCACUUUGGGCACUUGGUGUGGGCGUGAGAGGACAGGCGUGAUUGACAGAGCUGACAGGAAGACAAAAGGCACUGGUGGGUUAUAUCUUGGGCCUGUGAGAGGGAGGGGCUCCGCAACAGAGGAUUGAGCAUCA
B21: chr10:126501906:126501907:+_ENSMUSG00000006728_ENSMUST00000133115|mus_hu|FALSE|FALSE (ssRNA)
RNA: GGGAGUUCUACAGUCCGACGAUCCUUCAGAUCUCGGUGAACGAUGCAAUUGGCAUGAAGGAAAUCUAGGCCUCUUAGAAACUGGCGCAUCAGAUCCUUGAUCGUUUCGGCUGGCAAGCCUGGUGGGGGUGCCUUGUCCAGAUACAACAGAGGAUUGAGCAUCA
B22: chr18:9257185:9257186:+_ENSG00000101745_ENST00000400020|hu_mus|FALSE|FALSE (ssRNA)
RNA: GGGAGUUCUACAGUCCGACGAUCUUGGAAAUGUUUUAUGGGCUCACAGAUAACUGAGGGCAUACUGCAUCUUCUAAUUUCUACAGCAGGUCUUACCUCAUUAGUAAUUAGUUUAACAUCUUCCACAGAAGAUGACCUGAGAUGCAACAGAGGAUUGAGCAUCA

The assay concerns the target T1, UNK ZnF1-3. In words: nsRBNS (natural sequence RNA bind-n-seq); RBNS binding buffer (assumed for nsRBNS): 25 mM Tris pH 7.5, 150 mM KCl, 3 mM MgCl2, 0.01% Triton X-100, 500 ug/ml BSA, 20 U/ml SUPERase-In, 4 C; UNK is unkempt and MSI1 is Musashi-1; names of the RNAs are library labels; protein concentration not given here; high values mean tight binding.
Take B1: the binding signal is 1.49 enrichment R.

The molecule B2 came in with a binding signal of 0.844 enrichment R.

With B3, the binding signal was 2.65 enrichment R.

On to B4, for which the binding signal stood at 0.744 enrichment R.

Turning to B5, the binding signal was determined as 0.629 enrichment R.

Consider B6, for which the binding signal amounted to 1.89 enrichment R.

Turning to B7, the binding signal came out at 1.03 enrichment R.

With B8, the binding signal came to 0.716 enrichment R.

B9 registered a binding signal of 1.19 enrichment R.

The molecule B10 displayed a binding signal of 1.29 enrichment R.

Regarding B11, the binding signal was 0.965 enrichment R.

Molecule B12 showed a binding signal of 0.602 enrichment R.

For the molecule B13, the binding signal amounted to 1.43 enrichment R.

B14: the binding signal was determined as 1.01 enrichment R.

Take B15: the binding signal was 1 enrichment R.

B16 had a binding signal of 0.334 enrichment R.

B17 yielded a binding signal of 0.876 enrichment R.

B18 came in with a binding signal of 0.664 enrichment R.

B19 yielded a binding signal of 1.4 enrichment R.

B20: the binding signal is 2.34 enrichment R.

Regarding B21, the binding signal is 0.775 enrichment R.

Turning to B22, the binding signal was 0.838 enrichment R.
